Experimental data as given in article PMC11915835, “Enhancing the solubility of SARS-CoV-2 inhibitors to increase future prospects for clinical development” (Journal of Virology, 2025).

Tests used:
[1] = cited from earlier work
[2] = tested on: HEK 293T cells; settings: 10 µM peptide concentration

Row | Compound | Solubility (in words) [1] | Toxicity (MTT) [2]
1 | CC[C@H](C)[C@H](NC(=O)[C@H](C)NC(=O)[C@H](CCC(=O)O)NC(=O)[C@H](CCC(=O)O)NC(=O)[C@H](CC(C)C)NC(=O)[C@H](CCCCN)NC(=O)[C@H](CCCCN)NC(=O)[C@H](CCSC)NC(=O)[C@H](CCC(=O)O)NC(=O)[C@H](Cc1ccc(O)cc1)NC(=O)[C@H](CCC(=O)O)NC(=O)[C@H](CC(C)C)NC(=O)[C@H](CC(=O)O)NC(=O)[C@H](CC(C)C)NC(=O)[C@H](Cc1ccccc1)NC(=O)[C@@H](NC(=O)[C@@H](NC(=O)[C@H](CC(N)=O)NC(=O)[C@@H](NC(=O)[C@H](CCC(N)=O)NC(=O)[C@H](CC(=O)O)NC(=O)[C@H](CC(C)C)NC(=O)[C@H](CO)NC(C)=O)[C@@H](C)CC)C(C)C)[C@@H](C)O)C(=O)N[C@@H](CCCCN)C(=O)N[C@@H](CCCCN)C(=O)N[C@@H](CC(C)C)C(=O)N[C@@H](CCC(=O)O)C(=O)N[C@@H](CCC(=O)O)C(=O)N[C@@H](CO)C(=O)N[C@@H](Cc1ccc(O)cc1)C(=O)N[C@H](C(=O)N[C@@H](CC(=O)O)C(=O)N[C@@H](CC(C)C)C(=O)N[C@@H](CCCCN)C(=O)N[C@@H](CCC(=O)O)C(=O)N[C@@H](CC(C)C)C(N)=O)[C@@H](C)CC [EK1, reference compound] | high solubility | –
2 | Ac-SIDQINATFVDIEYEIKKLEEVAKKLEESYIDLKEL-NH2 [SK] | – | no toxicity was observed
